# Reference: US20250011379A1 (VERTEX PHARMACEUTICALS, published 2025)
# T1: human C4b (human, UniProt P0C0L5 20-1744)
# T1 chain 1: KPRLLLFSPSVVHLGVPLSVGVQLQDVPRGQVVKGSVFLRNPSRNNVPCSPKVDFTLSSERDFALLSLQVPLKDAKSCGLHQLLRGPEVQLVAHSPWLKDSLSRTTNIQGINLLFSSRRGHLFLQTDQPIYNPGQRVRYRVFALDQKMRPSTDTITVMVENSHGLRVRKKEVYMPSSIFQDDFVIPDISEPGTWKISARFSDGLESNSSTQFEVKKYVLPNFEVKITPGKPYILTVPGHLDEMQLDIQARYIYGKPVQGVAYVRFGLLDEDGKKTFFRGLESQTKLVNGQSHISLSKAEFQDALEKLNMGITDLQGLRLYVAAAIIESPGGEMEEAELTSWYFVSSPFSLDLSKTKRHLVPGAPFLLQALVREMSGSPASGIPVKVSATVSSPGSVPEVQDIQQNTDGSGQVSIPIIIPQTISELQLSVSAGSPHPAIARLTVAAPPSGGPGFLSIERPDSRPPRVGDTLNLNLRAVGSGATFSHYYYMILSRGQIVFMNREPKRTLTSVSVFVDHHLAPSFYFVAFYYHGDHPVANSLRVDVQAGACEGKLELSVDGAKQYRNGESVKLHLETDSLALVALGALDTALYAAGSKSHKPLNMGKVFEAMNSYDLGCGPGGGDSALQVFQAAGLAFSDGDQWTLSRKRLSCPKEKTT
# T1 chain 2: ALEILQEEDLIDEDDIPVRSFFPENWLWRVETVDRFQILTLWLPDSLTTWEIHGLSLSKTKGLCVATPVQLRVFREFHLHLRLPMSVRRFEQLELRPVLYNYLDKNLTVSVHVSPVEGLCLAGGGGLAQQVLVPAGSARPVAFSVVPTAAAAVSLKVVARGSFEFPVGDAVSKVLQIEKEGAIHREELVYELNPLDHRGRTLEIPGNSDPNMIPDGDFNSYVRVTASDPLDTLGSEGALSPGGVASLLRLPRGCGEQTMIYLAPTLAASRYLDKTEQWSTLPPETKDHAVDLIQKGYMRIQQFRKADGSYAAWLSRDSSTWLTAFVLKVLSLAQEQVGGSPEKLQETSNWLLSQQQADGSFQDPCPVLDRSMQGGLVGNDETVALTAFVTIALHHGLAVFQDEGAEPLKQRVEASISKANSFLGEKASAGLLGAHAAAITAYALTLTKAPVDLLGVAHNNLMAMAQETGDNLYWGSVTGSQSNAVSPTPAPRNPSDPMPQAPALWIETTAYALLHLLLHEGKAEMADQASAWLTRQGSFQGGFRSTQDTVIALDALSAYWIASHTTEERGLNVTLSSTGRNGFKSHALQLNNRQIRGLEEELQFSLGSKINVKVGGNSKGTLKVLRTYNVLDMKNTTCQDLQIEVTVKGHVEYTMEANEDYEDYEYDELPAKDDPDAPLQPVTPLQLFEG
# T1 chain 3: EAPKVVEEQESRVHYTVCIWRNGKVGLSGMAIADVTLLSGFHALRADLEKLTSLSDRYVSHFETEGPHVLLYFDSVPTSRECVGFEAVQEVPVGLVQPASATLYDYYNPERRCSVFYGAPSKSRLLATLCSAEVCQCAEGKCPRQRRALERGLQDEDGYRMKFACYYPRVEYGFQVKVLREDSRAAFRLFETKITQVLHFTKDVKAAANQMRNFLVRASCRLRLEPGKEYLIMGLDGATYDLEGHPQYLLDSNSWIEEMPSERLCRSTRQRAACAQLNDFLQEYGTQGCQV
# B1: Const. No. 95: HSA linked with CFI (CFI-HSA), wild type (enzyme)
# chain: [not shown - about 600 residues]GGSSGGKVTYTSQEDLVEKKCLAKKYTHLSCDKVFCQPWQRCIEGTCVCKLPYQCPKNGTAVCATNRRSFPTYCQQKSLECLHPGTKFLNNGTCTAEGKFSVSLKHGNTDSEGIVEVKLVDQDKTMFICKSSWSMREANVACLDLGFQQGADTQRRFKLSDLSINSTECLHVHCRGLETSLAECTFTKRRTMGYQDFADVVCYTQKADSPMDDFFQCVNGKYISQMKACDGINDCGDQSDELCCKACQGKGFHCKSGVCIPSQYQCNGEVDCITGEDEVGCAGFASVTQEETEILTADMDAERRRIKSLLPKLSCGVKNRMHIRRKRIVGGKRAQLGDLPWQVAIKDASGITCGGIYIGGCWILTAAHCLRASKTHRYQIWTTVVDWIHPDLKRIVIEYVDRIIFHENYNAGTYQNDIALIEMKKDGNKKDCELPRSIPACVPWSPYLFQPNDTCIVSGWGREKDNERVFSLQWGEVKLISNCSKFYGNRFYEKEMECAGTYDGSIDACKGDSGGPLVCMDANNVTYVWGVVSWGENCGKPEFPGVYTKVANYFDWISYHVGRPFISQYNV
# Target: T1, human C4b
# Experiment: cell-based or functional assay
binder,measurement,value
B1,C4c EC50,292 nM
